Test results published in PubChem BioAssay AID588795 (National Center for Advancing Translational Sciences (NCATS), 2011).
The whole screen tested about 390,000 compounds, of which about 1,400 (0.36%) were called active. Inconclusive results, whose numbers are uncertain, are shown with a selection of clear calls. The call rests on the fitted dose curve; in most records, active means well fitted inhibition curve with a large enough effect; inconclusive means small, poorly fitted or top-dose-only effect; inactive means no such curve, though single readings can be large or run the other way. Where the call is inconclusive, the potency comes from a doubtful curve fit.

Each molecule was assayed against Flap endonuclease 1 (Homo sapiens) (UniProt P39748) (assay: qHTS Assay for the Inhibitors of Human Flap endonuclease 1 (FEN1).). Conditions: Recombinant FEN1 flap cleavage, fluorescence, 15 min; series mostly up to 114 µM; activity change, negative = inhibition: at the top concentration.
Method in brief: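 In this screen, 50 nM flap DNA substrate was added to 10 nM FEN1 pretreated with compound for 15 min at room temperature; cleavage was followed with reads at 0 and 15 min, and Hill fitting gave concentration–response parameters.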
Further: nearly all actives have a fitted effect of over 65% in size.
On the % scale 0 is the no-effect control and ±100 the full control effect; potency means the concentration at half of the fitted maximal effect; tags describe the fitted curve by direction and shape.

Sequence of UniProt P39748 (P39748 whole entry, looked up): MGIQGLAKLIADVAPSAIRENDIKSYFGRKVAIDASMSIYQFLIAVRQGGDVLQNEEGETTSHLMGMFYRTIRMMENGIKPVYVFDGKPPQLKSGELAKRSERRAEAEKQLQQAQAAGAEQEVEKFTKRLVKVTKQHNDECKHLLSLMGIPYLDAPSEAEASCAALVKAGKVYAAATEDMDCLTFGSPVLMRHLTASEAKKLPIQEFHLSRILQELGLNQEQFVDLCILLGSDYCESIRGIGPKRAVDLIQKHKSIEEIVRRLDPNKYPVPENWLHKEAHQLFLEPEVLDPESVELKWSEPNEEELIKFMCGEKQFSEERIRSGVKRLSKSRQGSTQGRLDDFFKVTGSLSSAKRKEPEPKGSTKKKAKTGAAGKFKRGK

SMILES	Potency	activity change, negative = inhibition
O=C(N=Nc1c(O)[nH]c2ccc([N+](=O)[O-])cc12)c1ccccc1Cl	inconclusive: 50.1 µM [inhibitor, partial curve]	
Cc1ccc(S(=O)(=O)N(C)C)cc1NC(=O)COC(=O)Cc1ccc(Br)cc1		inactive: -1.73%
CC1CCc2cccc3c(O)cc(=O)n1c23 (stereo unspecified)	inconclusive: 31.6 µM [inhibitor, partial curve, poor fit]	
CC(C)(C)CC(C)(C)N=C1Nc2ccc(Cl)cc2NC12C[C@H]1CCC(=O)N3CC[C@@H](C2)[C@@H]13 (stereo partly specified)	inconclusive: 39.8 µM [inhibitor, partial curve, poor fit]	
CC[n+]1ccnc2ccccc21	inconclusive: 50.1 µM [inhibitor, partial curve]	
Cc1cc(NC(=O)CSc2nnc(-c3ccncc3)n2N)ccc1Br	inconclusive: 89.1 µM [inhibitor, partial curve, poor fit]	
COc1ccc(NC(=O)N(C(C)C)C2CCN(C(C)=O)CC2)c(OC)c1		inactive: -2.49%
O=C(N/N=C/C(Br)=C/c1ccccc1)c1n[nH]c2c1CCC2		inactive: -10%
CC[C@]12c3[nH]c4cc(CCC(=O)N(C)C)ccc4c3CCN1C(=O)[C@@H](CC(=O)NCCC1=CCCCC1)C[C@@H]2C(=O)N1CCN(C(=O)c2ccco2)CC1		inactive: -3.36%
Cc1cccn2c(Nc3ccc4c(c3)OCCO4)c(-c3ccc(Br)o3)nc12	inconclusive: 17.8 µM [inhibitor, partial curve, poor fit]	
CCc1nc(Nc2ccc(O)cc2)c2oc3ccccc3c2n1	inconclusive: 56.2 µM [inhibitor, partial curve, poor fit]	
COc1ccc(NC(=O)CSc2nc(-c3ccc(OC)cc3)cc(=O)[nH]2)cc1		inactive: 6.79%
Cc1cc(=O)[nH]c2cc(N)ccc12		inactive: 2.32%
CCN1C(=O)c2cccc3c(N)ccc1c23	inconclusive: 1.41 µM [inhibitor, full curve, poor fit]	
COc1ccc(OC)c(C2CC(=O)OC3=C2C(=O)CC(C)(C)C3)c1 (stereo unspecified)	inconclusive: 50.1 µM [inhibitor, partial curve, poor fit]	
Cc1cc(N/N=C/c2ccc(Cl)cc2)nc(NCc2ccccc2)n1	inconclusive: 89.1 µM [inhibitor, partial curve, poor fit]	
Cc1cccc(N2CCN(S(=O)(=O)c3ccc(F)c(C(=O)Nc4ccc(C(C)C)cc4)c3)CC2)c1C		inactive: -18%
N#CC1=C(N)OC2=C(CCc3ccccc32)C1c1ccccc1Cl (stereo unspecified)	inconclusive: 79.4 µM [inhibitor, partial curve, poor fit]	
O=C(NCCc1ccc(Cl)cc1)C1CC(=O)N(CCc2ccccc2)C1 (stereo unspecified)	inconclusive: 89.1 µM [inhibitor, single point]	
COc1cccc2c1C(=O)c1c(O)c3c(c(O)c1C2=O)C[C@](O)(C(C)=O)C[C@H]3O[C@@H]1C[C@@H](N)[C@@H](O)[C@@H](C)O1	inconclusive: 63.1 µM [inhibitor, partial curve, poor fit]	
CCOc1cc(-c2ccc3c(c2)OCO3)cc(=[O+]CC)c2c(C)oc(C)c12	active: 44.7 µM	
CCc1nnc(SCC(=O)N2CCCc3ccccc32)nc1CC		inactive: 8.85%

SMILES	Potency	activity change, negative = inhibition
O=C(Nc1cnn(Cc2ccc(Cl)c(Cl)c2)c1)c1nc2ncccn2n1		inactive: 3.59%
COc1cc(/C=C2/SC(=O)NC2=O)ccc1Oc1ccc([N+](=O)[O-])cc1[N+](=O)[O-]	inconclusive: 44.7 µM [inhibitor, partial curve, poor fit]	
NNc1cccc(C=Cc2ccccc2)cc1=O	inconclusive: 50.1 µM [inhibitor, partial curve]	
O=C(CCc1c[nH]c2ccccc12)OCc1ccc(Br)cc1	inconclusive: 79.4 µM [inhibitor, single point]	
COc1ccc(OC)c(CCNC(=O)Cn2nc(C)c3c(C)n(-c4ccc(C)cc4)nc3c2=O)c1	inconclusive: 70.8 µM [inhibitor, single point]	
CCOc1ccccc1NC(=O)Cn1cnc2sc(C)c(S(=O)(=O)N3CCC(C)CC3)c2c1=O		inactive: 10.8%
O=C(Cc1cccs1)N/N=C\c1ccc([N+](=O)[O-])s1	inconclusive: 89.1 µM [inhibitor, single point]	
CC(C)(C)n1ncc2c(=O)n(Cc3ccc(SC(F)(F)F)cc3)cnc21		inactive: -0.292%
CCOc1ccc(NCc2cccn2-c2nnc(N3CCC(C(=O)NCCc4ccc(OC)c(OC)c4)CC3)s2)cc1		inactive: 4.45%
O=C(O)COc1ccc2c(c1)O/C(=C\c1ccco1)C2=O	inconclusive: 31.6 µM [inhibitor, full curve, poor fit]	
CC(C)c1ccc(-c2cc(C(=O)N3N=C(C(F)F)CC3(O)C(F)F)c3ccccc3n2)cc1 (stereo unspecified)	inconclusive: 39.8 µM [inhibitor, partial curve]	
CCOC(=O)c1ccc(NC(=O)c2nc[nH]c2C(=O)N[C@@H](C)C(=O)OC(C)(C)C)cc1	inconclusive: 28.2 µM [inhibitor, partial curve, poor fit]	
COc1cc(/C=C(\C#N)C(=O)Nc2ccc(C(=O)O)cc2)ccc1OC(=O)c1cccc(F)c1	inconclusive: 50.1 µM [inhibitor, partial curve, poor fit]	
O=C(NCc1ccccc1Cl)c1cnc2sc(N3CCCCC3)nn2c1=O		inactive: -0.438%
COc1ccc(Cl)cc1NC(=O)c1c(NCc2sccc2C)sc2c1CCCC2	active: 79.4 µM	
COc1ccc2cc(/C=C3\SC(=S)NC3=O)c(N3CCOCC3)nc2c1	inconclusive: 56.2 µM [inhibitor, partial curve, poor fit]	
CN(Cc1ccccc1C#N)S(=O)(=O)c1cccs1		inactive: -2.78%
O=c1cc(-c2ccc(O)cc2)oc2cc(O)c(C3OC(CO)C(O)C(O)C3O)c(O)c12 (stereo unspecified)	inconclusive: 50.1 µM [inhibitor, partial curve]	
COc1ccccc1N(C)S(=O)(=O)c1ccc(C(=O)OCC(=O)Nc2ccccc2F)cc1		inactive: 9.44%
Cc1ccc(NC(=O)CN2C(=O)S/C(=C\c3ccc(OCC(=O)O)c(Br)c3)C2=O)cc1	inconclusive: 50.1 µM [inhibitor, partial curve, poor fit]	
O=[N+]([O-])c1ccc2nc(-c3ccccc3)[nH]c2c1	inconclusive: 50.1 µM [inhibitor, partial curve]	
CC[N+](CC)(CC)c1ccc(/C=C/c2ccc3ccccc3n2)cc1	active: 39.8 µM	

SMILES	Potency	activity change, negative = inhibition
CCc1ccc(N(CC)C(=O)Cn2c(=O)oc3ccccc32)cc1		inactive: 18.5%
Cc1ccc(-c2cnc(NCc3ccc(C(F)(F)F)cc3)n2C)cc1	inconclusive: 79.4 µM [inhibitor, partial curve, poor fit]	
CCOCCn1ccc2c(OCC(=O)Nc3ccc(OC(F)(F)F)cc3)cccc2c1=O		inactive: 20.8%
N#Cc1c(N)nc2c(c1-c1ccc3c(c1)OCO3)CCc1ccccc1-2	inconclusive: 50.1 µM [inhibitor, partial curve, poor fit]	
C=CCc1ccccc1OCC(O)CN1CCN(c2ccccc2)CC1 (stereo unspecified)	inconclusive: 79.4 µM [inhibitor, partial curve, poor fit]	
O=C(/C=C/c1ccco1)NC(=S)Nc1cccc(C(=O)O)c1	active: 17.8 µM	
O=C(CN1CCOc2ccccc21)N1CCC(Cc2ccccc2)CC1	inconclusive: 31.6 µM [inhibitor, partial curve, poor fit]	
CC(=O)Nc1ccc(NC(=O)COC(=O)C2CCCCC2)cc1	inconclusive: 89.1 µM [inhibitor, single point]	
CC(=O)Nc1ccc(C2CC(c3ccc(Cl)cc3)=NN2c2ccccc2)cc1 (stereo unspecified)	inconclusive: 89.1 µM [inhibitor, partial curve, poor fit]	
COc1cc2cc(CNc3ccc(C)cc3)c(=O)n(CC(=O)Nc3ccc(C(C)C)cc3)c2cc1OC		inactive: 13.1%
COc1ccc(-c2nc(CCNC(=O)c3cccs3)cs2)cc1OC		inactive: 20.3%
CCOc1ccc(NS(=O)(=O)c2cc(NC(=O)c3ccc(C)cc3)ccc2Cl)cc1	inconclusive: 50.1 µM [inhibitor, partial curve, poor fit]	
FC(F)(F)Oc1ccc(Nc2nc(N3CCOCC3)nc(N3CCOCC3)n2)cc1	inconclusive: 89.1 µM [inhibitor, partial curve, poor fit]	
Cc1cnc(C(=O)OCc2nc3ccsc3c(=O)[nH]2)cn1	inconclusive: 56.2 µM [inhibitor, partial curve, poor fit]	
Cc1ccc(S(=O)(=O)c2cc3c(=O)n4ccccc4nc3n(CC3CCCO3)c2=N)cc1C (stereo unspecified)		inactive: 5.1%
COc1ccc(-c2nc(CSCC(=O)N3CCN(C4CCCCC4)CC3)c(C)o2)cc1OC	inconclusive: 39.8 µM [inhibitor, single point]	
Oc1c(Cl)cc(CN2CCOCC2)c2cccnc12	inconclusive: 14.1 µM [inhibitor, partial curve, poor fit]	
COc1ccccc1C(=O)CC(=O)c1ccccc1		inactive: -10.9%
COc1ccc(NC(=O)c2cc(CN3C(=O)c4ccccc4C3=O)ccc2OC)cn1	inconclusive: 89.1 µM [inhibitor, partial curve, poor fit]	
Cc1c(C(=O)O)sc2nc(/C=C/c3cccc(F)c3)[nH]c(=O)c12	inconclusive: 70.8 µM [inhibitor, partial curve, poor fit]	
CNCCCOc1cc2nc(N3CCCN(C)CC3)nc(NC3CCN(C)CC3)c2cc1OC	active: 22.4 µM	
Oc1c(Br)cc(Br)cc1CNc1cccc2cccnc12	inconclusive: 8.91 µM [inhibitor, full curve]	
